Measurements published in PubChem BioAssay AID1259400 (National Center for Advancing Translational Sciences (NCATS), 2018).
In all, about 350,000 compounds went through this assay and about 2,100 (0.6%) were called active. Inconclusive means that the source gave no clear call. Such entries were picked first, then a sample of the others.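 Rule for the calls: active = activity change of -60% or lower, but not beyond a set lower limit; inconclusive = change between -60% and -40%, or beyond the set limit; inactive = change above -40%.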

These compounds were tested against Relaxin receptor 1 (Homo sapiens) (UniProt Q9HBX9) (assay: qHTS Assay for Antagonists of the Relaxin Receptor RXFP1). Conditions: HEK293-RXFP1, relaxin-stimulated cAMP HTRF, 30 min; at 57.5 µM; stronger effect = lower value.
% is set by controls: 0 for no effect and ±100 for the full control effect.

Sequence of UniProt Q9HBX9 (Q9HBX9 whole entry, looked up): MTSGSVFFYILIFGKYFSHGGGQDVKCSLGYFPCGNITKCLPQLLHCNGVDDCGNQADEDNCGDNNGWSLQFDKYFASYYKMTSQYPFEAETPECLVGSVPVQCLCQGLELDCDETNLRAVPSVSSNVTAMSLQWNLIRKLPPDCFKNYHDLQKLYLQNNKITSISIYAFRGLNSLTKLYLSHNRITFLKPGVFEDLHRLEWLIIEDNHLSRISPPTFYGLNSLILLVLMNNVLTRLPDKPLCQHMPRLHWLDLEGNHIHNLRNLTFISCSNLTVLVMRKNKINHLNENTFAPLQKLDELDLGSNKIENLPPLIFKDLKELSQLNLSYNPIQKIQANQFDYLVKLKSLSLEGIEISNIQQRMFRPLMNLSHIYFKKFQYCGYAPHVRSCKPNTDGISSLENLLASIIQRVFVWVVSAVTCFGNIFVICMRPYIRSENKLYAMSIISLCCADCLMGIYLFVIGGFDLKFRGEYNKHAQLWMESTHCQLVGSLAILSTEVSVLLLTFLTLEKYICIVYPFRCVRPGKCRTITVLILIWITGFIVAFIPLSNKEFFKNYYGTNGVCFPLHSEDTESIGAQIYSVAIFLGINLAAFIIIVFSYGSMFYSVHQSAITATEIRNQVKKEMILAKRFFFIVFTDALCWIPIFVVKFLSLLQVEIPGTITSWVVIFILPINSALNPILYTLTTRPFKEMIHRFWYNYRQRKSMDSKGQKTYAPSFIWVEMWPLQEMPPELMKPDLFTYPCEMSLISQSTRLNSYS

SMILES | activity change, negative = inhibition
CC1CCCCC1NC(=O)COC(=O)c1c2c(nc3ccccc13)/C(=C\c1ccco1)CC2 (stereo not drawn) | active: -65.5%
O=C(CCC(=O)N1CCSc2ccccc21)NCc1ccccc1Cl | inactive: -8.59%
COc1ccc2c(c1)C=C(CN1CCN(C(C)C)C(CCO)C1)CO2 (stereo not drawn) | inconclusive: -41.8%
O=[N+]([O-])/C=C\c1ccc(N2CCCC2)c(F)c1 | active: -67.8%
COc1cccc2c1C(=N)c1c(O)c3c(c(O)c1C2=O)CC(O)(C(C)=O)CC3OC1CC(N)C(O)C(C)O1 (stereo not drawn) | inconclusive: -41%
COc1ccc(Nc2cc(C)c3ccccc3n2)cc1 | inconclusive: -42.2%
CC(C)OC(=O)CNc1n[nH]c(=S)[nH]c1=O | inactive: -39.5%
Cc1cc(S(=O)(=O)N2CCC(N3CCCCC3)CC2)ccc1-n1cnnn1 | inactive: 1.22%
COc1ccccc1C=Cc1ccnc2ccccc12 | inconclusive: -53.3%
C=CCN(CC=C)Cc1c(C)[nH]c2ccc(C(=O)OCC)cc2c1=O | inactive: -4.17%
CCOC(=O)C(C)/C(C)=N/NC(=O)c1cc2ccccc2cc1O (stereo not drawn) | inconclusive: -44.7%
Oc1ccc(/C=N/NC(=S)N2CCOCC2)cc1 | inactive: -15%
Cc1ccc(C)c(N(C(=O)c2snc(C(N)=O)c2N)C(C(=O)NCC2CCCO2)c2cccs2)c1 (stereo not drawn) | inconclusive: -55.4%
O=C(c1ccccc1)C(CN1CCCCC1)c1ccccc1 (stereo not drawn) | active: -82%
CCc1ccc(CN(C)CC(O)COc2cccc3ccccc23)cc1 (stereo not drawn) | inconclusive: -43.6%
Fc1cccc(Cc2noc(CN3CCCN(C4Cc5ccccc5C4)CC3)n2)c1 | inactive: -11.1%
COc1ccccc1C(=O)N1CCC(c2noc(-c3ccc(S(=O)(=O)N4CCCC4)cc3)n2)CC1 | inconclusive: -58.9%
COc1cccc(CNC(=O)c2oc3c(c2C)-c2nn(Cc4cccc(Cl)c4)cc2CC3)c1OC | inconclusive: -41.2%
CC(CCc1ccccc1)NC(=O)COC(=O)c1ccc(S(C)(=O)=O)c([N+](=O)[O-])c1 (stereo not drawn) | active: -89.2%
O=C(N/N=C/c1cc2c3c(c1O)CCCN3CCC2)c1ccccc1O | active: -76.2%
O=S(=O)(O)OCC1OC(OC2(COS(=O)(=O)O)OC(COS(=O)(=O)O)C(OS(=O)(=O)O)C2OS(=O)(=O)O)C(OS(=O)(=O)O)C(OS(=O)(=O)O)C1OS(=O)(=O)O (stereo not drawn) | inactive: 19.1%
COc1cccc(C(=O)Nc2ccc3nc(SCC(=O)N4CCOCC4)sc3c2)c1 | active: -96%

SMILES | activity change, negative = inhibition
CC(=O)N1CCc2c(sc(NC(=O)C3CCN(S(=O)(=O)c4cccs4)CC3)c2C(N)=O)C1 | active: -60.3%
Fc1ccccc1-c1ccc(/C=N/Nc2nc3ccccc3[nH]2)o1 | inconclusive: -55.4%
CC(=O)N(Cc1cccnc1)c1nc2c(F)cc(F)cc2s1 | inactive: -12.6%
Cc1ccccc1NC(=O)c1nc(S(C)(=O)=O)ncc1Cl | inconclusive: -53%
COc1cccc(CN(C(=O)c2oc3cc(C)ccc3c2C)C2CCS(=O)(=O)C2)c1 (stereo not drawn) | inactive: -15.8%
CCN(CC)c1ccc(N=Cc2ccccc2[N+](=O)[O-])cc1 | active: -67.6%
COc1cccc(-c2nc(NCC3CCCO3)c3ccccc3n2)c1O (stereo not drawn) | inconclusive: -50%
O=C(C[C@H]1C(=O)N(C2CCCCC2)C[C@@H]1c1ccccc1)Nc1ccc(Br)cc1 | inactive: 0.892%
COc1cccc(OC)c1NC(=O)C1CCCN1C(=O)Nc1cccc(Cl)c1 (stereo not drawn) | active: -63%
CCN(CC)CCN(C(=O)c1ccc2c(c1)CCCC2)c1nc2ccc(F)cc2s1 | inconclusive: -53%
CCCCC/C(=N\NC(=O)Nc1ccccc1)c1ccccc1 | inconclusive: -52.2%
Cc1ccc(C(=O)c2cn(CC(=O)NC3CCCCC3)c3nc(C)ccc3c2=O)cc1 | inactive: -9%
c1ccc(N=Nc2cn[nH]c2-c2ccco2)cc1 | inconclusive: -45.8%
C/C(=C\c1ccccc1)CN1CCN(c2ccccc2F)CC1 | inconclusive: -47.3%
CN(O)C(=S)c1ccccc1 | inconclusive: -51.1%
COC(=O)c1cccc(NC(=O)Nc2ccc(Cl)c(Cl)c2)c1 | inconclusive: -43.9%
Cc1nc(-c2noc(-c3cccc(Cl)c3)n2)c(C(F)(F)F)o1 | inconclusive: -48.7%
CCCn1c(=S)[nH]c2ccc(C(F)(F)F)cc21 | inconclusive: -43.4%
Cc1onc(-c2ccccc2)c1-c1csc(N/N=C/c2ccccc2)n1 | inconclusive: -45.9%
Cc1cc(C(=O)Cn2cnc3ccccc3c2=O)c(C)n1C1CC1 | inconclusive: -42.4%
C=C(C)C1CC=C(C)/C(=N/NC(=O)c2ccc(NC(=O)CCC)cc2)C1 (stereo not drawn) | inactive: 15.8%
OC1(c2ccc(OC(F)F)cc2)CSC(=Nc2cccnc2)N1Cc1ccco1 (stereo not drawn) | inactive: -31.1%

SMILES | activity change, negative = inhibition
O=C(c1ccc(-c2ccc([N+](=O)[O-])cc2)o1)N1CCCCCCC1 | active: -71.5%
COc1ccccc1N1CCN(c2csc3ccccc3c2=O)CC1 | inconclusive: -46.5%
COc1ccc(/C=C/C(=O)c2ccncc2)c2ccccc12 | inconclusive: -42.1%
COc1ccc(CN2CCCC(C(=O)c3ccc(Cl)cc3)C2)cc1Cn1cccn1 (stereo not drawn) | inactive: -13.3%
CCOC(=O)c1ccc(NC(=O)c2nc[nH]c2C(=O)N[C@@H](C)CO)cc1 | inactive: 10.7%
Cc1ccc(N2C(=O)CS/C2=N\C(=S)Nc2ccccc2)cc1 | inconclusive: -50%
Cc1oc(-c2ccc(Cl)cc2)nc1Cn1c(=O)cc(-c2ccccc2)c2c(C)nn(C)c21 | inactive: -4.24%
CCCCCCC(O)(c1ccccc1)C(CN1CCOCC1)c1ccccc1 (stereo not drawn) | inconclusive: -45.3%
O=[N+]([O-])c1ccc(-c2cnc(SC(c3ccccc3)c3ccccc3)[nH]2)cc1 | inconclusive: -46.4%
CCn1c(-c2ccc3[nH]c(C)c(C)c3c2)n[nH]c1=S | inconclusive: -44%
CC12CCC(O)CC1=CCC1C2CCC2(C)c3[nH]ncc3CC12 (stereo not drawn) | inconclusive: -43%
O=C(Nc1ccccc1)N1CCc2c([nH]c3ccccc23)C1C(F)(F)F (stereo not drawn) | inactive: 1.39%
O=C(N/N=C/c1ccccc1OCc1ccccc1Cl)c1cccnc1 | inconclusive: -55.9%
CC1(C)C(C=C(Cl)Cl)C1C(=O)N(Cc1ccc(Cl)cc1)C1CCS(=O)(=O)C1 (stereo not drawn) | inconclusive: -52.4%
CC1=C(C)/C(=N\OS(=O)(=O)c2ccc(C)cc2)C=CC1=O | -140%
COc1ccc(CCNc2oc(COc3ccc(Cl)cc3)nc2C#N)cc1OC | active: -64.1%
CC(C)(C)c1cc(=O)[nH]c(SCc2ccccc2Cl)n1 | active: -74%
CC1CN(CCOc2ccc([N+](=O)[O-])cc2)CC(C)O1 (stereo not drawn) | inactive: 7.34%
COC(=O)CN(c1ccc(C)c(Cl)c1)S(C)(=O)=O | inactive: -16.5%
CC[C@]12CCCN3CCc4c(n(c5ccccc45)C(=O)C1)[C@@H]32 | inconclusive: -43.1%
CC(=O)Nc1ccc(C(=O)CSc2ncn(-c3ccccc3)n2)cc1 | inactive: -9.91%
COc1ccc2c(Sc3ccc(Cl)cc3)c(C(=O)NCCCN3CCCCC3)[nH]c2c1 | inconclusive: -45.9%

SMILES | activity change, negative = inhibition
CCOC(=O)c1c(-c2ccccc2)c[nH]c1C | active: -87.6%
O=C(N/N=C/c1cccnc1)c1ccc(NC(=O)C(c2ccccc2)c2ccccc2)cc1 | inconclusive: -53%
CC(C)OCCCN1C(=O)c2[nH]nc(-c3ccccc3O)c2C1c1ccc(OCc2ccccc2)cc1 (stereo not drawn) | inconclusive: -59.5%
Cc1cc(NC(=O)C(C)SCC(=O)Nc2cc(C(F)(F)F)ccc2N2CCOCC2)no1 (stereo not drawn) | active: -71.6%
O=C(CSc1ncnc2nc[nH]c12)c1ccc2ccccc2c1 | inconclusive: -55.2%
CN(CCOc1ccccc1)C(=O)C1CCN(C(=O)c2ccc(F)cc2)CC1 | inactive: -7.45%
COC(=O)c1ccc(Nc2cc(C)nc3ccc(C)cc23)cc1 | inactive: 13.4%
O=C(CCN1CCc2ccccc2C(c2ccccc2)C1)c1ccc2c(c1)OCCO2 (stereo not drawn) | inconclusive: -42.1%
Cn1ccnc1C(O)c1ccc(OCc2ccccc2)cc1 (stereo not drawn) | inactive: -9.79%
COc1ccc(NC(=O)Nc2nnc(N(C)C3CCCCC3)s2)c(OC)c1 | inconclusive: -56.9%
Cc1cccc(/C=N/NC(=O)c2ccccc2OCc2cccc(Br)c2)n1 | inconclusive: -42.3%
CCOC(=O)c1c(NC(=S)Nc2ccccc2)sc2c1CC(C)(C)SC2 | inconclusive: -43%
Cc1ccc2nc(N(CCCN(C)C)C(=O)c3ccc(Br)s3)sc2c1 | inconclusive: -53.1%
O=C(CSc1nnc(NC(=O)C2CCC2)s1)Nc1ccccc1F | inconclusive: -41.9%
CS(=O)(=O)Cc1cc(Sc2ccccc2)nc(-c2ccncc2)n1 | inconclusive: -53.8%
O=C(CNC(=O)c1ccccc1Br)N/N=C/c1ccccc1O | inactive: 7.7%
CCn1c(/C=C/c2ccc(O)cc2)nc2ccccc2c1=O | active: -70.7%
CCOC(=O)N1CCN(C(=O)C2CCN(C(=O)c3ccccc3C)CC2)CC1 | active: -102%
COc1ccc(NS(=O)(=O)c2ccc(-n3nnc4ccccc43)c([N+](=O)[O-])c2)cc1 | inactive: -18.7%
Cc1oc2cc(O)cc(O)c2c(=O)c1-c1ccc2c(c1)OCCCO2 | inconclusive: -41.5%
Cc1cc(C)c2c(CC(=O)Nc3ccc(S(=O)(=O)N4CCCC(C)C4)cc3)coc2c1 (stereo not drawn) | inconclusive: -52%
O=C(/C=C/c1ccco1)Nc1ccc(Oc2ccc(Cl)cc2)cc1 | inactive: -16.2%
